Reference: PubChem BioAssay AID1508623 (National Center for Advancing Translational Sciences (NCATS), 2021)
Hit rate of the full screen: of about 48,000 compounds, about 450 (0.94%) were called active. Inconclusive results (about 19%) are left out. Calls follow the shape of the dose curve; as a rule, active = well fitted inhibition curve with a large enough effect; inconclusive = small, poorly fitted or top-dose-only effect; inactive = no such curve, though single readings can be large or run the other way. This is one part of the list.

experiment: Primary qHTS for Identification of Small Molecule Inhibitors of Huntingtin Promoter Activity; settings: HEK293 HTT promoter firefly luciferase reporter (activity 0% = vehicle and -100% = no light), 24 h; series mostly up to 57.5 µM; activity change, negative = inhibition: at the top concentration; also: nearly all actives have a fitted effect of over 50% in size
Summary of the method: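 HEK293 luciferase promoter-reporter cells (2,500/well) plated 24 h, then compounds added at up to 57.5 uM final for 24 h at 37 °C. Firefly luminescence by Dual-Glo, normalized to vehicle (0%) and zero RLU (-100%).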

Activity change, negative = inhibition, inactive:
Cc1ccc(NC(=O)C2CCN(S(=O)(=O)c3c(C)noc3C)CC2)c(C)c1 -9.33%
CC(=O)N1CCOc2cc(S(=O)(=O)NCc3ccc(C)cc3)c(Cl)cc21 -12.3%
CCOc1ccccc1NC(=O)c1cc(=O)c2ccc(C)cc2o1 -17.4% [at 11.5 µM]
O=C(Cc1cccs1)NC1CC(=O)N(c2cccc(F)c2)C1 (centres undefined) 5.4%
COc1cccc(C(=O)Nc2ccc3nc(SCC(=O)N4CCOCC4)sc3c2)c1 -15.9%
Cn1c(=O)n(C)c2cc(NS(=O)(=O)c3ccc(F)cc3)ccc21 -1.62%
COc1cc2nc(NCCC(C)C)n3nc(-c4ccccc4)nc3c2cc1OC -8.8%
Cc1cc(C)n2c(Nc3ccc(Cl)cc3)c(-c3ccsc3)nc2n1 -21.9%
Cc1ccc2c(CN3CCN(C(=O)c4ccc(F)cc4)CC3)cc(=O)oc2c1 -10.3%
Cc1ccc(OCC(=O)N(c2ccc(C)cc2)S(=O)(=O)c2ccc(Cl)cc2)cc1 -29.6%
CCc1c2c(nc3ccc(OC(=O)N4CCC(N5CCCCC5)CC4)cc13)-c1cc3c(c(=O)n1C2)COC(=O)[C@]3(O)CC
O=C(CS(=O)(=O)c1cccc2nsnc12)Nc1ccccc1 -0.807%
COc1ccccc1CNC(=O)CN1C(=O)COc2ccc(S(=O)(=O)Nc3ccccc3)cc21 -21.4%
CC(C)(C)c1ccc(C(=O)NCCc2csc3nc(-c4ccccc4F)nn23)cc1 0%
CSCCC(NS(=O)(=O)c1ccc2c(c1)oc(=O)n2C)C(=O)N1CCN(c2cc(C)ccc2C)CC1 (centres undefined) -11.8%
COc1ccc(C2CC(=O)NC(NC(=O)c3ccc(Br)cc3)=N2)c(OC)c1OC (centres undefined) -20.9%
O=C(Nc1cc(-c2nc3ccccc3s2)ccc1Cl)c1cc2ccccc2o1 21.3%
O=S(=O)(Nc1ccccc1C(F)(F)F)c1ccc(N2CCCCS2(=O)=O)cc1 -25.3%
COc1cc(/C=C/c2nc(C#N)c(N3CCCCCC3)o2)cc(OC)c1OC -14.9%
COc1ccc(Cl)cc1NS(=O)(=O)c1ccc2[nH]c3c(c2c1)CCCC3 -17.8%
Cc1cccc(C)c1NC(=O)Cn1c(=O)n(Cc2ccccc2)c(=O)c2c(C)c(C(=O)N(C)C)sc21 -13.1%
Cc1ccc(Cl)cc1-n1c(=O)cc(N2CCN(c3ccc(F)cc3)CC2)[nH]c1=O -24.7%
Cc1cc(C)c2oc(C(=O)Nc3ccc(S(=O)(=O)N4CCCCC4)cc3)cc(=O)c2c1 19.6%
CC(=O)N(Cc1cccnc1)c1nc2c(F)cc(F)cc2s1 -21.1%
Cn1c(=O)c2c(-c3ccc(Cl)cc3)n(Cc3ccccc3)cc2n(C)c1=O -23.1%
O=C(O)Cn1nnc(-c2ccc(OCc3cccc(C(F)(F)F)c3)cc2)n1 -6.8%
CCOC(=O)c1cc(S(=O)(=O)Nc2ccc(C)cc2Cl)[nH]n1 -7.99%
O=C(CSc1nccn1Cc1ccco1)Nc1ccc(F)cc1 -3.68%
COc1ccc(CNC(=O)CSc2nc3ccccc3nc2Cc2ccccc2)cc1 -19.6%
COc1ccc(Cn2c(CCC(=O)NCc3cccc(Cl)c3)nc3cccnc32)cc1 -18.1%
COc1cccc(/C=C/c2nc(C#N)c(NCCN(C)C)o2)c1 -13.4%
CCc1ccc(NC(=O)Cc2c(C(=O)O)c(C)cn2C)cc1 -7.7%
Cc1ccccc1Nc1c(-c2ccc(Br)o2)nc2ccc(Cl)cn12 -24%
COc1cc(OC)c(NC(=O)c2cc(C)nc3c2c(C)nn3-c2ccc(C)cc2)cc1Cl -3.1%
Cc1ccc(NC(=O)CCN2CCN(CCO)CC2)cc1C -6.47%
COc1ccc(CCNC(=O)c2ccc3c(c2)N(Cc2ccc(Cl)cc2)C(=O)c2ccccc2S3)cc1OC -27.1%
CCOc1ccc(-c2nn(CC(=O)NC3CCCC3)c3c2cnc2ccc(C)cc23)cc1 -23%
CCN(Cc1nc(-c2ccc(OC)cc2)oc1C)S(=O)(=O)c1ccc(C)cc1 -5.61%
CC(=O)c1ccc(NC(=O)Cn2c(-n3nc(C)cc3C)nc(C)c(C)c2=O)cc1 -19.1%
CCOc1ccccc1Nc1nnc(-c2cc3cc(OC)ccc3oc2=O)s1 12.1%
CCOC(=O)Cc1ccc(NC(=O)N2CCC(CN3CCCCCC3)CC2)cc1 -8.22%
CCc1ccc(Oc2c(C(F)(F)F)oc3c(CN4CCC(C)CC4)c(O)ccc3c2=O)cc1 -9.67%
COc1cccc(CSc2nc3n(n2)C(CC(C)C)C(C(=O)Nc2ccccc2OC)=C(C)N3)c1 (centres undefined) -7.46%
CCCCN(CC)CCCNC(=O)Cn1ncc2c3ccccc3n(C)c2c1=O 10.8%
COc1ccc(C(=O)N2CCC(C(=O)Nc3ccc(Cl)cc3)CC2)cc1 -30.1%
Cc1cc(=O)n2nc(N(C)CC(=O)NCc3cccc(Br)c3)sc2n1 -9.18%
CCOc1ccc(OCC)c(NC(=O)Cn2nc(CC)n3c(cc4sccc43)c2=O)c1 1.61%
Cc1ccc(/C(=C\CN2CCCC2)c2ccccn2)cc1 -13%
Cc1nc2ccc(S(=O)(=O)N(CC(=O)Nc3cccc(F)c3)Cc3ccccc3)cc2s1 -26.7%
